The list shows a part of the results. Many values rest on one well or one pass, so single values are uncertain.
Columns and labels:
Experiment in all cases: cell count relative to DMSO control; melanoma cells; higher = more viable cells
Conditions in all cases: library dose: low library concentration; 72 h
[1] = tested on: MZ2-MEL
[2] = tested on: MeWo
[3] = tested on: RPMI7951
[4] = tested on: RVH-421
[5] = tested on: SkMel28
[6] = tested on: SkMel2
[7] = tested on: SkMel30
[8] = tested on: SkMel5
[9] = tested on: UACC257
[10] = tested on: UACC62
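Also: cell number obtained by counting DAPI-stained nuclei in high-throughput microscope images with image analysis software, screen run in 1,536-well plates.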

Compound	cell count [1] [%]	cell count [2] [%]	cell count [3] [%]	cell count [4] [%]	cell count [5] [%]	cell count [6] [%]	cell count [7] [%]	cell count [8] [%]	cell count [9] [%]	cell count [10] [%]
COCC[n+]1c2c(n(Cc3cnccn3)c1C)C(=O)c1ccccc1C2=O + O=C(O)c1ccc(-c2c[nH]c3ncc(-c4ccccc4)cc23)cc1C1CCCC1 [GSK650394] (first compound 0.0004 µM, partner dose 0.16 µM)	41.3	84.3	82.2	96.9	82.2	86.7	83.8	62.2	64.6	90
C#Cc1cccc(Nc2ncnc3cc(OCCOC)c(OCCOC)cc23)c1 [erlotinib] + C[C@@H]1CCN(C(=O)CC#N)C[C@@H]1N(C)c1ncnc2[nH]ccc12 [CP690550] (first compound 0.8 µM, partner dose 1 µM)	91	93.2	90.1	95.7	110	102	90.8	109	93.8	94.5
Nc1cccc2c1CN(C1CCC(=O)NC1=O)C2=O (centres undefined) [lenalidomide] + O=C(CCCCCCC(=O)Nc1ccccc1)NO [vorinostat] (first compound 1 µM, partner dose 0.08 µM)	107	92.3	102	101	72.9	102	101	85.6	85	80
OCc1c[nH]c2ccccc12 [Indole-3-carbinol] + O=S(=O)(c1ccccc1)N(CC(F)(F)F)c1ccc(C(O)(C(F)(F)F)C(F)(F)F)cc1 [T0901317] (first compound 0.8 µM, partner dose 1.4 µM)	101	106	97.3	91.5	72.4	98.5	142	102	71	102
OCc1c[nH]c2ccccc12 [Indole-3-carbinol] + O=C(O)c1ccc(-c2c[nH]c3ncc(-c4ccccc4)cc23)cc1C1CCCC1 [GSK650394] (first compound 0.8 µM, partner dose 0.16 µM)	97	91.3	105	120	81.1	101	102	89.2	107	85.1
Clc1ccc(Nc2nnc(Cc3ccncc3)c3ccccc23)cc1 [vatalanib] + COc1ccc2c(c1)CCC1C2CCC2(C)C(NCCCCCCN3C(=O)C=CC3=O)CCC12 [U73122] (first compound 2 µM, partner dose 0.4 µM)	77.8	69.3	59.7	94.2	68.1	0.0921	71.4	74.2	72.8	65.2
Nc1cccc2c1CN(C1CCC(=O)NC1=O)C2=O (centres undefined) [lenalidomide] + OCCn1cc(-c2cnc3nnn(Cc4ccc5ncccc5c4)c3n2)cn1 [PF04217903] (first compound 1 µM, partner dose 1 µM)	104	95.3	94	99.8	112	100	110	89.1	97	102
Clc1ccc(Nc2nnc(Cc3ccncc3)c3ccccc23)cc1 [vatalanib] + COc1cc2ncnc(Nc3ccc(Oc4ccccc4)cc3)c2cc1OC [SrcI1] (first compound 2 µM, partner dose 2 µM)	90.7	84	109	107	72.3	112	99.7	93.7	82.1	101
O=C(CCCCCCC(=O)Nc1ccccc1)NO [vorinostat] + COc1cc(Nc2ncc(F)c(Nc3ccc4c(n3)NC(=O)C(C)(C)O4)n2)cc(OC)c1OC [Tamatinib] (first compound 0.08 µM, partner dose 0.4 µM)	94.8	93	89.1	104	84.9	97.8	98.9	87.6	71.7	74.1
Nc1cccc2c1CN(C1CCC(=O)NC1=O)C2=O (centres undefined) [lenalidomide] + Cn1nnc2c(C(N)=O)ncn2c1=O [temozolomide] (first compound 1 µM, partner dose 2 µM)	92.6	99.6	89.6	92	90.5	90.7	110			78.4
Cn1c(Nc2ccc(C(F)(F)F)cc2)nc2cc(Oc3ccnc(-c4ncc(C(F)(F)F)[nH]4)c3)ccc21 + C[C@]1(c2nc3c(C(N)=O)cccc3[nH]2)CCCN1 [Veliparib] (first compound 0.08 µM, partner dose 1.4 µM)	75.4	55.4	59	63.4	49.6	69.4	59.5			52.7
Clc1ccc(Nc2nnc(Cc3ccncc3)c3ccccc23)cc1 [vatalanib] + COc1ccc(Cl)c(Nc2nc3ccccc3nc2NS(=O)(=O)c2cccc(NC(=O)C(C)(C)N)c2)c1 [XL147] (first compound 2 µM, partner dose 0.8 µM)	89.6	66.2	85.8	77.8	95.6	91.5	88.1			86.1
Cn1c(Nc2ccc(C(F)(F)F)cc2)nc2cc(Oc3ccnc(-c4ncc(C(F)(F)F)[nH]4)c3)ccc21 + COCC[n+]1c2c(n(Cc3cnccn3)c1C)C(=O)c1ccccc1C2=O [YM155] (first compound 0.08 µM, partner dose 0.0004 µM)	52.6	61.1	65	77.1	65.5	75.2	55.1			56
Nc1cccc2c1CN(C1CCC(=O)NC1=O)C2=O (centres undefined) [lenalidomide] + C[C@]1(c2nc3c(C(N)=O)cccc3[nH]2)CCCN1 [Veliparib] (first compound 1 µM, partner dose 1.4 µM)	110	99.4	109	96.4	106	93.5	89.6			96.1
COCC[n+]1c2c(n(Cc3cnccn3)c1C)C(=O)c1ccccc1C2=O + C[C@]1(c2nc3c(C(N)=O)cccc3[nH]2)CCCN1 [Veliparib] (first compound 0.0004 µM, partner dose 1.4 µM)	59.5	90.1	81.7	85.8	91.7	77.4	85			78.6
C#Cc1cccc(Nc2ncnc3cc(OCCOC)c(OCCOC)cc23)c1 [erlotinib] + Cc1nc(Nc2ncc(C(=O)Nc3c(C)cccc3Cl)s2)cc(N2CCN(CCO)CC2)n1 [dasatanib] (first compound 0.8 µM, partner dose 0.004 µM)	78.9	79	67.3	107	81.5	93.6	73.1			78.4
Cn1c(Nc2ccc(C(F)(F)F)cc2)nc2cc(Oc3ccnc(-c4ncc(C(F)(F)F)[nH]4)c3)ccc21 + Nc1cccc2c1CN(C1CCC(=O)NC1=O)C2=O [lenalidomide] (first compound 0.08 µM, partner dose 1 µM)	73.5	71.5	57.5	60.8	52	80.2	50			41.9
Clc1ccc(Nc2nnc(Cc3ccncc3)c3ccccc23)cc1 [vatalanib] + COCC[n+]1c2c(n(Cc3cnccn3)c1C)C(=O)c1ccccc1C2=O [YM155] (first compound 2 µM, partner dose 0.0004 µM)	73.7	71.4	89.4	81.8	96	94.4	94			86.8
C#Cc1cccc(Nc2ncnc3cc(OCCOC)c(OCCOC)cc23)c1 [erlotinib] + COc1cc2c(Oc3ccc4[nH]c(C)cc4c3F)ncnc2cc1OCCCN1CCCC1 [cediranib] (first compound 0.8 µM, partner dose 0.4 µM)	103	95.2	121	134	80.7	109	87.3	101	107	90.8
Clc1ccc(Nc2nnc(Cc3ccncc3)c3ccccc23)cc1 [vatalanib] + Cc1nc(Nc2ncc(C(=O)Nc3c(C)cccc3Cl)s2)cc(N2CCN(CCO)CC2)n1 [dasatanib] (first compound 2 µM, partner dose 0.004 µM)	77.2	60.9	43.6	68	87.6	89.3	104			79
Clc1ccc(Nc2nnc(Cc3ccncc3)c3ccccc23)cc1 [vatalanib] + C#Cc1cccc(Nc2ncnc3cc(OCCOC)c(OCCOC)cc23)c1 [erlotinib] (first compound 2 µM, partner dose 0.8 µM)	96	64.9	82.6	78.2	86.1	93.4	80.3			84.5
OCc1c[nH]c2ccccc12 [Indole-3-carbinol] + COC(=O)c1sccc1S(=O)(=O)Nc1ccc(Nc2ccccc2)cc1OC [GSK0660] (first compound 0.8 µM, partner dose 1 µM)	111	117	119	128	109	107	108	109	86.1	91.3
Clc1ccc(Nc2nnc(Cc3ccncc3)c3ccccc23)cc1 [vatalanib] + O=C(O)c1ccc(-c2c[nH]c3ncc(-c4ccccc4)cc23)cc1C1CCCC1 [GSK650394] (first compound 2 µM, partner dose 0.16 µM)	99.5	72.9	81.5	89	79.1	93.4	108	83.9	78.1	101
OCc1c[nH]c2ccccc12 [Indole-3-carbinol] + Nc1cccc2c1CN(C1CCC(=O)NC1=O)C2=O [lenalidomide] (first compound 0.8 µM, partner dose 1 µM)	102	95	115	90.6	90	103	108			106
C#Cc1cccc(Nc2ncnc3cc(OCCOC)c(OCCOC)cc23)c1 [erlotinib] + C[C@]1(c2nc3c(C(N)=O)cccc3[nH]2)CCCN1 [Veliparib] (first compound 0.8 µM, partner dose 1.4 µM)	91.5	83.9	85.4	103	85.4	86.4	78.3			79.2
